Reference: PMC6919601, “Identification of Plasmodium dipeptidyl aminopeptidase allosteric inhibitors by high throughput screening” (PLoS ONE, 2019)
The whole screen tested about 110,000 compounds, of which about 230 (0.21%) showed an effect of 50% or more. The list shows a part of the results.

Molecular target: DPAP1 (Plasmodium falciparum, UniProt Q8IIJ9)
Experiment: primary screen, percent inhibition; read by cleavage of a fluorogenic dipeptide substrate; higher = more effect of the substance
Set-up: species or system P. falciparum D10 trophozoite lysates; single well
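Also: 30 min substrate incubation versus DMSO and 10 µM JCP410 controls.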

DPAP1, sequence (Q8IIJ9 whole entry, looked up): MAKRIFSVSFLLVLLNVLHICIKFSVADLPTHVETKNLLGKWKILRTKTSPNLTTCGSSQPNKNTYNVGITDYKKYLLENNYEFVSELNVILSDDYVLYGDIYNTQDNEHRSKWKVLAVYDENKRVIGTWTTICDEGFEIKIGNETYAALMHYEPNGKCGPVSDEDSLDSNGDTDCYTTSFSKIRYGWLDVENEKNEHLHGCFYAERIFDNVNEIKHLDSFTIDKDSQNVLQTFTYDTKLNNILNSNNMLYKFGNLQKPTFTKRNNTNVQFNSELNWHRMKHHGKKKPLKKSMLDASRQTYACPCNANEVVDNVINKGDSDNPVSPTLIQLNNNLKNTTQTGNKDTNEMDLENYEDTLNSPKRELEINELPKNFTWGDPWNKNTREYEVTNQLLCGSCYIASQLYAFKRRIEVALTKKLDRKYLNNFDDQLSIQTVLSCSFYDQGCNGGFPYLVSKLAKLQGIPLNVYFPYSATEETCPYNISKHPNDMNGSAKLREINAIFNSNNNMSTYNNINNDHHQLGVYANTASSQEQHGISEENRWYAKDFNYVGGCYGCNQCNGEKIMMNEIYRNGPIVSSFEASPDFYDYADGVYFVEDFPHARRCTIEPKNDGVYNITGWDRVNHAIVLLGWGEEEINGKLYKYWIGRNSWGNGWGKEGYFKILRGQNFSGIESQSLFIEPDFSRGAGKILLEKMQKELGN

Compound	% Inhibition @ 10 uM
Cc1nc2c(-c3ccccc3)c(C)nn2c(C)c1CC(=O)NCc1cccnc1	-2.45%
Cc1cccc(Nc2nc(-c3ccccn3)cs2)n1	1.74%
O=C(O)C1CCCN1S(=O)(=O)c1ccc2nc(O)c(O)nc2c1 (stereo not shown)	-9.6%
CCn1ncc(C2=NOC(C(=O)NCc3ccc(F)cc3)C2)c1C (stereo not shown)	-4.85%
Cc1ccccc1C(=O)c1cccn1CC(=O)O	1.43%
CNC(=O)CCCN1C(=O)c2ccccc2Sc2ncccc21	-5.68%
CCCN1CNC(=S)N(CCc2ccccc2)C1	-5.62%
CCc1ccc(C(C)NC(=O)Cn2cnc3c(=O)n(C)c(=O)n(C)c32)cc1 (stereo not shown)	1.88%
O=C1c2ccccc2-c2nnc(-c3ccc(Cl)cc3)cc21	-0.736%
CC(=O)c1c(-c2ccccc2)nc2n(Cc3ccccc3)c3ccccc3n12	5%
COc1cccc(S(=O)(=O)NCc2ccc(C(=O)Nc3ccc(Br)cc3F)cc2)c1	-0.545%
COc1ccc(NC2=C(Cl)C(=O)N(Cc3ccccc3)C2=O)c(OC)c1	-0.661%
COc1ccc(-c2nc(-c3cc4ccc(O)cc4oc3=O)cs2)cc1	0.23%
Cc1nn(C)c(C)c1C1C(C#N)=C(N)N(c2cccc(Br)c2)C2=C1C(=O)CC(C)(C)C2 (stereo not shown)	0.722%
CC(=O)c1ccc(C(=O)N(CCN(C)C)c2nc3c(C)c(C)ccc3s2)cc1	6.32%
CC[C@H](C)[C@H](NC(=O)c1cccc(O)c1)C(=O)N[C@@H](CCc1ccccc1)C(=O)CO	6.4%
Cc1ccccc1OCC(=O)NC1CC2CCC1C2 (stereo not shown)	4.57%
N#CC1=C(N)Oc2c(O)nc(O)nc2C1c1ccccc1 (stereo not shown)	-2.62%
CCN(CC)C(=O)c1ccc2c(c1)nc(N1CCOCC1)n2Cc1ccccc1	-12.2%
CCCCCC(=O)Nc1sc(C)c(C)c1C(N)=O	0.317%
Cc1nn(-c2ccc(F)cc2)c(-n2cccc2)c1C(=O)N1CCOCC1	-2.3%
Cc1nn(CC(=O)NCCN2CCC(Cc3ccccc3)CC2)c(=O)c2nn(-c3ccccc3)c(C)c12	-0.665%

Compound	% Inhibition @ 10 uM
CCOC(=O)N1CCC(NC2c3ccccc3-c3ccccc32)CC1	1.38%
Cc1nn(-c2ccc(F)cc2)c(O)c1/C=N/c1ccc(S(=O)(=O)N2CCCCC2)cc1	-2.89%
Cc1ccc(C(=O)O)cc1NC(=O)c1ccc(Cn2nc(C)c(Br)c2C)o1	14.3%
COc1ccc(C(=O)Nc2cc(Cl)ccc2C)c(OC)c1	-0.849%
Cc1ccc(S(=O)(=O)NC(=O)C(=O)NS(=O)(=O)c2ccc(C)cc2)cc1	0.413%
COCCN1C(=O)/C(=C/c2ccc(C(=O)O)cc2)S/C1=N\c1ccccc1	-2.15%
CCCCn1c(=N)n(CC(O)c2ccc(OCC)cc2)c2ccccc21 (stereo not shown)	5.6%
CCCC/N=c1/c(-c2ccccc2)c(O)c1=O	-4.68%
CSc1ccc(CCNC(=O)C(CCS(C)(=O)=O)N2Cc3ccccc3C2=O)cc1 (stereo not shown)	-0.234%
CC1=Nc2c(c(=O)[nH]c(=O)n2-c2ccc(Cl)cc2)C(C(F)(F)F)(C(F)(F)F)N1	-1.52%
CN(C)c1ccc(S(=O)(=O)c2ccc(Cl)cc2)cc1	-1.29%
Cc1nn(CC(=O)N2CCC(N3CCCCC3)CC2)c(=O)c2nn(-c3ccccc3)c(C)c12	-0.486%
O=C(COc1ccc(Cl)cc1)OCCCNC1C2CC3CC(C2)CC1C3 (stereo not shown)	-0.0953%
CC(C)Cn1cc(C(=O)NCCc2ccccc2Cl)c2c3ccccc3n(C)c2c1=O	-3.12%
COc1ccc(-c2c(C)nn3c(-c4ccccc4)cc(C)nc23)cc1	-0.436%
COc1ccc(CNC(=O)c2ccccc2Cl)cc1	-6.27%
COc1ccc(S(=O)(=O)NCCCC(=O)O)cc1	-3.41%
O=C1N=C(Nc2cccnc2)S/C1=C/c1cccc(F)c1	1.69%
CCCNc1ncccc1NC(=O)CCC(=O)O	3.96%
Brc1ccc(-c2nc(C3CCCCC3)no2)cc1	0.147%
Cc1c(CNCC2CCCO2)c(C(=O)O)c(C)n1Cc1ccc(F)cc1Cl (stereo not shown)	-5.49%
CSc1nc(-c2ccco2)nn1C(=O)c1ccco1	-0.958%

Compound	% Inhibition @ 10 uM
COc1ccccc1CC(=O)N1CCN(c2ccc(F)cc2)CC1	3.24%
O=[N+]([O-])c1ccc2nc(O)c(/C=C(\O)c3ccccc3)nc2c1	-4.35%
COc1ccc(C(=O)Nc2ccc([S+](O)Nc3nccs3)cc2)cc1 (stereo not shown)	6.19%
CCOc1ccc2nc(NC(=O)C3CCCN(c4ncnc5onc(C)c45)C3)sc2c1 (stereo not shown)	5.98%
COc1ccc(CNc2nc3cc(OC)c(OC)cc3c3nc(-c4cccnc4)nn23)cc1	-2.42%
CC1=C(C(=O)OCc2ccccc2)C(c2cccs2)C(C#N)=C(N)O1 (stereo not shown)	1.41%
CCC(O)c1nc2ccccc2n1Cc1ccccc1C (stereo not shown)	3.66%
CC(Sc1cccc2cccc(C(=O)O)c12)C(=O)O (stereo not shown)	0.64%
COc1ccc(N(CC(=O)N2CCCCCC2)S(C)(=O)=O)c(OC)c1	-0.173%
c1csc(-c2nnc(-c3ccc4c(c3)OCO4)o2)c1	1.72%
CCCCC1CCC(C(=O)OCC(=O)c2ccc(Br)cc2)CC1 (stereo not shown)	-2.42%
COc1ccccc1-c1nc(-c2ccc(-c3ccc(C)cc3)nc2OC)no1	-1.33%
CCN(CC)CCNC(=O)CN1CCCC1=O	2.86%
O=C(O)c1cccn1Cc1ccc(Cl)cc1	-4.97%
COc1ccc(C)cc1S(=O)(=O)N1CCN(c2cc(C)ccc2C)CC1	-2.19%
Nc1ccc(Sc2nc3ccccc3s2)c(Cl)c1	0.0345%
CC(NC(=O)Cn1cccc1C(=O)c1ccccc1)c1ccccc1 (stereo not shown)	2.76%
CCOC(=O)C1CCCN(Cc2ccccc2)C1 (stereo not shown)	1.48%
COCCNC(=O)Cn1cnc2onc(-c3ccc(F)cc3)c2c1=O	-5.13%
COc1cccc(-c2nc(CSCC(=O)NC3CCCC(C)C3C)c(C)o2)c1 (stereo not shown)	0.689%
